{
  "source": "PubChem BioAssay AID1347055",
  "about": "(National Center for Advancing Translational Sciences (NCATS), 2019)",
  "note": "Screen size: about 54,000 compounds; about 120 (0.22%) were called active. Inconclusive results, whose numbers are uncertain, are shown with a selection of clear calls. Calls come from the whole dose curve; as a rule, active = well fitted inhibition curve with a large enough effect; inconclusive = small, poorly fitted or top-dose-only effect, or effect the other way; inactive = flat fitted curve, though single readings scatter. No potency is given beside an inconclusive call; the fits are too rough.",
  "data": [
    {"target": "Fumarate hydratase, mitochondrial (Homo sapiens) (UniProt P07954)", "sequence (P07954 whole entry, looked up)": "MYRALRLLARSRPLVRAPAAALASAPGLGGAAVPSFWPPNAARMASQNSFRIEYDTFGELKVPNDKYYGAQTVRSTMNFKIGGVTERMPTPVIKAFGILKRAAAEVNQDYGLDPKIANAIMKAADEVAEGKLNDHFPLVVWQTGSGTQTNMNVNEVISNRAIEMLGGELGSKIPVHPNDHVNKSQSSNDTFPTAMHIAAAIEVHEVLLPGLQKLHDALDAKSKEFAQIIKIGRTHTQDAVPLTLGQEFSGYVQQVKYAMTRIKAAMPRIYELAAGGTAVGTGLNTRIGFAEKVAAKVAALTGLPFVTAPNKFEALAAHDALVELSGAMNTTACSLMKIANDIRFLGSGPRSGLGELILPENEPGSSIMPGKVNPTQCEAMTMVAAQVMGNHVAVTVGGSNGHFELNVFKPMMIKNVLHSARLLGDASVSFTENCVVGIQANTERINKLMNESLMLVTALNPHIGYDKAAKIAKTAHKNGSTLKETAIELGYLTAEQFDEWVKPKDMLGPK", "experiment": "Identification of activators of human fumarate hydratase by quantitative high-throughput screening; note: potency is the fitted concentration of half-maximal effect; tags give direction and shape of the fitted curve; note: the screen sought activators but most active calls are inhibition curves; nearly all actives have a fitted effect of over 45% in size", "details": "FH coupled MDH/diaphorase resazurin fluorescence, 15 min; series mostly up to 79.9 µM", "values": [
      {"compound": "NS(=O)(=O)c1ccc(CCNC(=O)C2COc3ccccc3C2)cc1", "note": "(stereo unspecified)", "Potency": "inconclusive [inhibitor, partial curve, poor fit]"},
      {"compound": "Cc1ccc(NC(=O)c2cc(S(=O)(=O)NCCC3=CCCCC3)ccc2F)cc1F", "Potency": "inconclusive [inhibitor, partial curve, poor fit]"},
      {"compound": "CCOC(=O)c1cccc(NC(=O)c2oc3c(c2C)-c2[nH]ncc2CC3)c1", "Potency": "inconclusive [inhibitor, single point]"},
      {"compound": "CCCN(C(=O)c1cc2c(s1)-c1ccccc1OC2)c1ccccc1F", "Potency": "inconclusive [inhibitor, partial curve, poor fit]"},
      {"compound": "Cc1ccc(CCNC(=O)C2CCCN(Cc3nc(-c4cccc(Cl)c4)oc3C)C2)cc1", "note": "(stereo unspecified)", "Potency": "inconclusive [inhibitor, partial curve, poor fit]"},
      {"compound": "Cc1cc2nc3ccc(=[N+](C)C)cc-3sc2cc1N", "Potency": "inconclusive [inhibitor, single point]"},
      {"compound": "Cc1ccc(NC(=O)CSc2nc3c(c(=O)[nH]2)CN(Cc2ccc4c(c2)OCO4)CC3)cc1C", "Potency": "inconclusive [inhibitor, single point]"},
      {"compound": "CCc1ccccc1NC(=O)c1cc(S(=O)(=O)NCCc2ccc(OC)c(OC)c2)ccc1F", "Potency": "inconclusive [inhibitor, partial curve, poor fit]"},
      {"compound": "COc1ccccc1CNC(=O)Cn1ncc2c(=O)oc3ccc(C)cc3c21", "Potency": "inactive"},
      {"compound": "Cc1ccc(Nc2c(-c3ccc(C)cc3)nc3cnccn23)cc1", "Potency": "inconclusive [inhibitor, single point]"},
      {"compound": "CCN(CC)C(=S)SSC(=S)N(CC)CC", "Potency": "inconclusive [inhibitor, partial curve]"},
      {"compound": "Fc1ccc(CNc2ncnc3c2c(-c2ccccc2)cn3-c2ccccc2)cc1", "Potency": "inconclusive [inhibitor, partial curve, poor fit]"},
      {"compound": "CCCc1nnc(NC(=O)c2nc(S(=O)(=O)Cc3ccc(C)cc3)ncc2Cl)s1", "Potency": "inactive"},
      {"compound": "O=S(=O)(NCCc1csc(-c2ccc(F)cc2)n1)c1ccc(Cl)cc1", "Potency": "inconclusive [inhibitor, partial curve]"},
      {"compound": "Cc1ccc2c(CNCCc3ccc(Cl)cc3)c(C(=O)O)n(Cc3ccc(F)cc3)c2c1", "Potency": "inconclusive [inhibitor, partial curve]"},
      {"compound": "CCOc1ccc(CNC(=O)c2ccc3nc(Cc4ccc(OC)cc4)oc3c2)cc1OC", "Potency": "inconclusive [inhibitor, partial curve]"},
      {"compound": "Cc1ccc(S(=O)(=O)NCc2nc3nc(C)cc(C)n3n2)c(C)c1", "Potency": "inconclusive [inhibitor, partial curve, poor fit]"},
      {"compound": "C[C@H]1[C@H](C)CC[C@]2(C(=O)O)CC[C@]3(C(=O)O)C(=CCC4[C@@]5(C)CC[C@H](O[C@@H]6O[C@H](C)[C@@H](O)[C@H](O)[C@H]6O)C(C)(C)C5CC[C@]43C)[C@H]12", "note": "(stereo partly specified)", "Potency": "inactive"},
      {"compound": "COc1ccc(NC(=O)CSc2nnc(-c3ccc(C)cc3)o2)cc1", "Potency": "inactive"},
      {"compound": "Cc1ccc(Cl)cc1N1CCN(C(=O)c2cn(C3CCCCC3)c(=O)c3c2c2ccccc2n3C)CC1", "Potency": "inconclusive [inhibitor, single point]"},
      {"compound": "CC1(c2ccc(Cl)cc2)CC(C)(C)N(C(=O)c2ccccc2)c2ccccc21", "note": "(stereo unspecified)", "Potency": "inactive"},
      {"compound": "C=C[C@H]1CN2CC[C@@H]1C[C@@H]2[C@@H](O)c1ccnc2ccc(OC)cc12", "Potency": "inconclusive [inhibitor, single point]"},
      {"compound": "CCCN(C(=O)c1cc2c(s1)-c1ccccc1SC2)c1ccccc1F", "Potency": "inconclusive [inhibitor, single point]"},
      {"compound": "CCOc1ccccc1CNC(=O)Nc1cn(CC(C)C)c(=O)c2ccccc12", "Potency": "active: 28.2 µM [activator]"},
      {"compound": "O=C(COc1ccccc1)NCCc1csc(-c2ccc(F)cc2)n1", "Potency": "inactive"},
      {"compound": "Cc1ccc(NC(=O)N2CCc3c(sc4c3CCCC4)C2c2ccccc2)cc1F", "note": "(stereo unspecified)", "Potency": "inconclusive [inhibitor, single point]"},
      {"compound": "O=C(/C=C/c1nc2ccccc2[nH]1)c1c(-c2ccccc2)c2cc(Cl)ccc2[nH]c1=O", "Potency": "inactive"},
      {"compound": "Cn1c2ccccc2c2c(C(=O)N3CCN(c4cccc(C(F)(F)F)c4)CC3)cn(C3CCCCC3)c(=O)c21", "Potency": "inconclusive [inhibitor, single point]"},
      {"compound": "CN(C)S(=O)(=O)N(CC(=O)NCCSc1ccc(Cl)cc1)c1ccccc1", "Potency": "inactive"},
      {"compound": "CC1(C)CC[C@]2(C(=O)O[C@@H]3O[C@H](CO)[C@@H](O)[C@H](O)[C@H]3O)CC[C@]3(C)C(=CCC4[C@@]5(C)CC[C@H](O[C@@H]6O[C@H](C(=O)O)[C@@H](O)[C@H](O[C@@H]7O[C@H](CO)[C@H](O)[C@H](O)[C@H]7O)[C@H]6O)C(C)(C)C5CC[C@]43C)C2C1", "note": "(stereo partly specified)", "Potency": "inactive"},
      {"compound": "Cc1cccc(Cn2nnc3c(=O)[nH]c(C4CCCN(C(=O)c5ccc(C(C)(C)C)cc5)C4)nc32)c1", "note": "(stereo unspecified)", "Potency": "inconclusive [inhibitor, partial curve]"},
      {"compound": "COc1ccccc1C(=O)NCCc1csc(-c2ccc(C(F)(F)F)cc2)n1", "Potency": "inconclusive [inhibitor, partial curve, poor fit]"},
      {"compound": "CCCN(CCC)S(=O)(=O)c1ccc(C(=O)N2CCn3c4c(c5cc(C)ccc53)CCCC42)cc1", "note": "(stereo unspecified)", "Potency": "inconclusive [inhibitor, full curve]"},
      {"compound": "CCC1Oc2ccccc2N(CC(=O)NCc2ccc(C)cc2)C1=O", "note": "(stereo unspecified)", "Potency": "inactive"},
      {"compound": "CCOC(=O)CSc1nc2ccccc2n2c(C)nnc12", "Potency": "inconclusive [inhibitor, single point]"},
      {"compound": "Cc1ccc(-c2onc(C)c2C)cc1S(=O)(=O)NC1CCC(C)CC1", "note": "(stereo unspecified)", "Potency": "inconclusive [inhibitor, partial curve, poor fit]"},
      {"compound": "COc1ccccc1CNC(=O)c1cnn(-c2ccc(F)cc2F)c1C1CCN(C(=O)OC(C)(C)C)CC1", "Potency": "inconclusive [inhibitor, single point]"},
      {"compound": "COc1ccc(S(=O)(=O)N(C(=O)c2ccncc2)c2ccc3oc(C)c(C(C)=O)c3c2)cc1", "Potency": "inactive"},
      {"compound": "CCC(C)n1c(=N)c(C(=O)NC2CCCCC2)cc2c(=O)n3cc(C)ccc3nc21", "note": "(stereo unspecified)", "Potency": "inactive"},
      {"compound": "COc1ccccc1N1CCN(Cc2cc(COC(C)C)c3cccnc3c2O)CC1", "Potency": "inconclusive [activator, single point]"},
      {"compound": "COC(=O)C(Cc1ccc(OCCn2c(=O)sc3cc(C(=O)c4ccccc4)ccc32)cc1)C(=O)OC", "Potency": "inactive"},
      {"compound": "COc1ccc(N(C(=O)c2cc(OC)c(OC)c(OC)c2)S(=O)(=O)c2ccc(C)cc2)cc1", "Potency": "inconclusive [inhibitor, single point]"},
      {"compound": "Cc1ccc(Nc2c(-c3cccc(Cl)c3)nc3cccc(C)n23)cc1", "Potency": "inconclusive [inhibitor, partial curve, poor fit]"},
      {"compound": "CC(C)c1ccc(NC(=O)CSC2=Nc3ccccc3C3=NC(CC(=O)NCCc4ccccc4)C(=O)N23)cc1", "note": "(stereo unspecified)", "Potency": "inconclusive [inhibitor, partial curve, poor fit]"},
      {"compound": "O=C(CSc1nc2ccccc2n1Cc1ccccc1)NCc1ccccc1", "Potency": "inconclusive [inhibitor, partial curve]"},
      {"compound": "CCOc1ccc(Nc2c(S(=O)(=O)c3ccccc3)cnc3ccc(CC)cc23)cc1", "Potency": "inconclusive [inhibitor, partial curve]"},
      {"compound": "CCCCCCn1c(/C=C/c2ccccc2)nc2ccccc21", "Potency": "inactive"},
      {"compound": "COc1ccc(-c2nc3sc(CCNC(=O)c4ccc(C(C)(C)C)cc4)c(C)n3n2)cc1", "Potency": "inconclusive [inhibitor, partial curve, poor fit]"},
      {"compound": "CC(C)c1ccc(NC(=O)c2cc(S(=O)(=O)NCCC3=CCCCC3)ccc2F)cc1", "Potency": "inconclusive [inhibitor, full curve]"},
      {"compound": "COc1ccc(CNC(=O)CN(C)S(=O)(=O)c2ccc3[nH]c4c(c3c2)CCCC4)cc1", "Potency": "inconclusive [inhibitor, partial curve, poor fit]"},
      {"compound": "COc1ccc(C2=Nc3ccccc3N(CC(=O)Nc3cccc(C(C)=O)c3)C(=O)C2)cc1", "Potency": "inconclusive [inhibitor, partial curve]"},
      {"compound": "CCOC(=O)c1ccc(NC(=O)C(CC)Sc2nncn3c2cc2oc(C)cc23)cc1", "note": "(stereo unspecified)", "Potency": "inconclusive [inhibitor, partial curve, poor fit]"},
      {"compound": "CC(=O)N1c2ccccc2CC1C(=O)N1CCN(c2ccccc2F)CC1", "note": "(stereo unspecified)", "Potency": "inactive"},
      {"compound": "COc1cc(NC(=O)Cn2cc(S(=O)(=O)N3CCC(C)CC3)c3ccccc3c2=O)cc(OC)c1OC", "Potency": "inconclusive [inhibitor, partial curve, poor fit]"},
      {"compound": "CC1[C@@H](O)[C@@H](O)C2[C@]3(C)C(C[C@H]4OC(=O)[C@H](O)[C@]1(O)[C@@]24C)C(C)(O)C[C@H](O)[C@H]3O", "note": "(stereo partly specified)", "Potency": "inactive"},
      {"compound": "N#C/C(=C\\c1ccc(O)c(O)c1)C(=O)NCCc1ccccc1", "Potency": "active: 31.6 µM"},
      {"compound": "COc1ccc(OC)c(CCNc2ncnc3onc(C)c23)c1", "Potency": "inactive"},
      {"compound": "CCOC(=O)C1=C(CS(=O)(=O)c2ccc(F)c(C)c2)NC(=O)NC1c1ccc(F)c(F)c1", "note": "(stereo unspecified)", "Potency": "inactive"},
      {"compound": "Cc1ccc(C)c(NS(=O)(=O)c2ccc3c(c2)CCCN3C(=O)C2CCC2)c1", "Potency": "inactive"},
      {"compound": "CCCN1Cc2cccc(C(=O)Nc3ccc(OC)cc3OC)c2C1=O", "Potency": "inconclusive [activator, single point]"},
      {"compound": "COc1cc(OC)c(NC(=O)C(C)n2nc(-c3ccc(C)c(C)c3)ccc2=O)cc1Cl", "note": "(stereo unspecified)", "Potency": "inconclusive [inhibitor, single point]"}
    ]}
  ]
}
